These results are taken from US20080114054A1, “Compositions and methods for reducing antimicrobial resistance of microbes” (priority 2006, published 2008).

In one test the test system is Listeria. Briefly: Inhibition zone of Listeria colonies exposed to composition of Table 1 in presence of antibiotics. The settings on record: composition listed in Table 1 in presence of the antibiotic; for Colonies showing a decreasing inhibition zone / Colonies showing increasing inhibition zone / Number of colonies with no change in inhibition zone: 30 colonies; for Percent colonies showing increase in inhibition zone (%): of 30 tested colonies. The format is cell-based.

A further test deals with E. coli. Put plainly: Inhibition zone of E. coli colonies exposed to composition of Table 1 in presence of antibiotics.
A further test relates to S. saprophyticus. Briefly: Inhibition zone of S. saprophyticus colonies exposed to composition of Table 1 in presence of antibiotics. The format is cell-based. The settings on record: composition listed in Table 1 in presence of the antibiotic; for Colonies showing a decrease in inhibition zone / Colonies showing an increase in inhibition zone / Colonies with no change in inhibition zone: 15 colonies; for Percent colonies showing increase in inhibition zone (%): of 15 tested colonies.

For the compound `CC1(C)S[C@@H]2[C@H](NC(=O)[C@H](N)c3ccccc3)C(=O)N2[C@H]1C(=O)O` [AMP, Ampicillin], in the test with Listeria (1 h), the “Colonies showing a decreasing inhibition zone” value is listed as 6, the “Colonies showing increasing inhibition zone” value is reported as 20, the “Number of colonies with no change in inhibition zone” value worked out at 4 and the “Percent colonies showing increase in inhibition zone (%)” value is on record as 66.7%. In the test with Listeria (2 h), the “Colonies showing a decreasing inhibition zone” value stood at 6, the “Colonies showing increasing inhibition zone” value is given as 21, the “Number of colonies with no change in inhibition zone” value is 3 and the “Percent colonies showing increase in inhibition zone (%)” value is 70.0%.
`CO/N=C(\C(=O)N[C@@H]1C(=O)N2C(C(=O)O)=C(COC(C)=O)CS[C@H]12)c1csc(N)n1` [CTX, Cefotaxime]: in the test on E. coli (1 h), the “Number of colonies showing a decrease in inhibition zone” value is reported as 3, the “Number of colonies showing an increase in inhibition zone” value turned out to be 26, the “Number of colonies with no change in inhibition zone” value turned out to be 1 and the “Percent colonies showing increase in inhibition zone (%)” value worked out at 86.7%. Besides, in the test on E. coli (2 h), the “Number of colonies showing a decrease in inhibition zone” value came out at 5, the “Number of colonies showing an increase in inhibition zone” value is on record as 22, the “Number of colonies with no change in inhibition zone” value came out at 3 and the “Percent colonies showing increase in inhibition zone (%)” value is on record as 73.3%.
`CC1COc2c(N3CCN(C)CC3)c(F)cc3c(=O)c(C(=O)O)cn1c23` (centres unmarked) [OFX, Ofloxacin]: in the test with E. coli (1 h), the “Number of colonies showing a decrease in inhibition zone” value turned out to be 5, the “Number of colonies showing an increase in inhibition zone” value stood at 20, the “Number of colonies with no change in inhibition zone” value is 5 and the “Percent colonies showing increase in inhibition zone (%)” value came out at 66.7%. In addition, in the test with E. coli (2 h), the “Number of colonies showing a decrease in inhibition zone” value is recorded as 8, the “Number of colonies showing an increase in inhibition zone” value was 17, the “Number of colonies with no change in inhibition zone” value is listed as 5 and the “Percent colonies showing increase in inhibition zone (%)” value came out at 56.7%.
Consider `CN(C)[C@@H]1C(O)=C(C(N)=O)C(=O)[C@@]2(O)C(O)=C3C(=O)c4c(O)cccc4[C@@](C)(O)[C@H]3C[C@@H]12` [TE, Tetracycline], for which, in the test on Listeria (1 h), the “Colonies showing a decreasing inhibition zone” value worked out at 2, the “Colonies showing increasing inhibition zone” value worked out at 26, the “Number of colonies with no change in inhibition zone” value stood at 2 and the “Percent colonies showing increase in inhibition zone (%)” value was 86.7%. In the test with Listeria (2 h), the “Colonies showing a decreasing inhibition zone” value is given as 2, the “Colonies showing increasing inhibition zone” value turned out to be 26, the “Number of colonies with no change in inhibition zone” value was 2 and the “Percent colonies showing increase in inhibition zone (%)” value was 86.7%. Besides, in the test with S. saprophyticus (1 h), the “Colonies showing a decrease in inhibition zone” value was found to be 0, the “Colonies showing an increase in inhibition zone” value is on record as 8, the “Colonies with no change in inhibition zone” value worked out at 7 and the “Percent colonies showing increase in inhibition zone (%)” value came out at 53.3%. Besides, in the test with S. saprophyticus (2 h), the “Colonies showing a decrease in inhibition zone” value was 0, the “Colonies showing an increase in inhibition zone” value is given as 8, the “Colonies with no change in inhibition zone” value is 7 and the “Percent colonies showing increase in inhibition zone (%)” value is given as 53.3%.
For the compound `CN[C@H](CC(C)C)C(=O)N[C@H]1C(=O)N[C@@H](CC(N)=O)C(=O)N[C@H]2C(=O)N[C@H]3C(=O)N[C@H](C(=O)N[C@H](C(=O)O)c4cc(O)cc(O)c4-c4cc3ccc4O)[C@H](O)c3ccc(c(Cl)c3)Oc3cc2cc(c3O[C@@H]2O[C@H](CO)[C@@H](O)[C@H](O)[C@H]2O[C@H]2C[C@](C)(N)[C@H](O)[C@H](C)O2)Oc2ccc(cc2Cl)[C@H]1O` [V, Vancomycin], in the test with S. saprophyticus (1 h), the “Colonies showing a decrease in inhibition zone” value is recorded as 2, the “Colonies showing an increase in inhibition zone” value amounted to 8, the “Colonies with no change in inhibition zone” value is reported as 5 and the “Percent colonies showing increase in inhibition zone (%)” value was 53.3%. Besides, in the test with S. saprophyticus (2 h), the “Colonies showing a decrease in inhibition zone” value turned out to be 1, the “Colonies showing an increase in inhibition zone” value came to 10, the “Colonies with no change in inhibition zone” value came to 4 and the “Percent colonies showing increase in inhibition zone (%)” value came to 66.7%.
On to Trimethoprim-Sulfamethoaxzole [SXT], for which, in the test on Listeria (1 h), the “Colonies showing a decreasing inhibition zone” value turned out to be 0, the “Colonies showing increasing inhibition zone” value came out at 30, the “Number of colonies with no change in inhibition zone” value worked out at 0 and the “Percent colonies showing increase in inhibition zone (%)” value worked out at 100%. Further, in the test on Listeria (2 h), the “Colonies showing a decreasing inhibition zone” value came to 0, the “Colonies showing increasing inhibition zone” value stood at 30, the “Number of colonies with no change in inhibition zone” value is 0 and the “Percent colonies showing increase in inhibition zone (%)” value was 100%.
